Test results: the RNAGym collection of RNA variant scans (doi:10.7554/elife.90254)
The source gives no read counts; variants with many changes may rest on few reads.

B1: LINE1-mini (parent)
chain: GGCAGAGCUCAACACAGCGUGGCAAAGUGGCUGUGGCUAGACUGCC

Variants of: B1
Assay: self-cleavage, relative activity (ratio to wild type); higher = more cleavage; in vitro, sequencing; the parent is a self-cleaving ribozyme

Variant | self-cleavage
G17A C18A G21U G33U | 0
G17U U20A G27U C45G | 0.08
G17U C18A C23A G30A C31U A41U G44U | 0.02
G17C G36U U38A A41C U43A G44A | 0.01
G17A A41U G44A C45G | 0.09
G17A A26C G29A G36C | 0.05
C18A G19U G21C C23G | 0.53
G17C G21C G27C G40C | 0.07
G17U G29C C46U | 0.77
G17A U20A U43G C46A | 0.02
G17A G22U C23U A24U U43C | 0.04
G17U G21C C23G G29A C45G | 0.14
G17U C23G A41G U43C | 0.01
G17C C18A G30U C42A | 0.02
G17U C31U A41U | 0.04
A16U C23G A26U U32G C37U C42A | 0.14
G17U G22C U28G U43A | 0
A16U G30A C46G | 0.05
G17C C31U C42A G44U | 0.02
G17C G19C U20A G29C A41C U43C | 0.05
G17C C23U A24U C37U | 0.09
G17C G36A U43A | 0.1
A16U A24G G30A | 0.07
G17A U20A U28C G40C | 0.03

Variant | self-cleavage
G17C U20C G33C C37A | 0
G17A A24C C37A A39G | 0.05
G17C G21U A24U C42A | 0.21
G17A G30C C42G | 0.02
A16U G19C G27C G40U G44U | 0.03
G17C G22U G44C | 0.09
C18A A24C U32C | 0.09
G17A C23U C45U | 0.3
C18A C23U G30A G44U | 0.03
G17A G36A A39G G40A | 0.01
A16U C37A G44U | 0.15
A16U G27U G44A | 0.11
G17U G21A G22U A26C G36C | 0.01
G17A G30U G40U | 0.58
G17C G21C C37A | 0.01
G17U C18A C23G | 0.08
G17U C18A C23U | 0.02
G17C G21A A26C G36C G40A U43G | 0.08
G17A C18U G27U | 0.03
G17A G22C U38A U43G | 0.05
G17U G19U G21U A24U A26U G40A C46U | 0.03
A16U U28A G29U G36U | 0.09
A16U G36U A39G | 0.06
G17C G19C G21U G40A | 0.02

Variant | self-cleavage
G17A G21U G22U G36C A39U | 0.04
C18A G19C A25G G44C | 0.25
G17U G21C G30C | 0.21
G17C G21A G22A | 0.05
G17C G21A G22C | 0.95
G17A G29U U32C | 0.27
G17C C18U G30U G40U C42U | 0.02
G17A G30C U38A | 0.22
G17A G22U A39U | 0.29
C18A A25U G36C U43G | 0
G17C U43C C46A | 0.1
C18A A26G U28A | 0.02
A16U A25G G35A | 0.03
C18A C23U U28C G44U | 0.02
A16U G19C U20G G30A | 0.02
C18A C23U A26G C46A | 0.04
A16U G17A G19C | 0.27
G17C G29A C42U G44U | 0.01
G17U G36A A41C | 0.12
G17U U20C A24G G27U A41C | 0.06
C18A A24G G30A | 0.87
G17A C23G G27U | 0.18
G17U G21A A24C G27C C45A | 0.16
G17A G36C C42G | 0.03

Variant | self-cleavage
G17A C23U C31G | 0.08
A16U G27A U43C | 0.06
G17C U20C G30U G36A G44U C45A | 0.02
G17C G27A U28A G30C C31U | 0.61
A16U G36U C45G | 0.05
C18A C37U G40U | 0.03
G17U U20C G27U | 0.21
A16U G22A C23A A26C | 0.03
G17U G30A C46G | 0.97
G17C C31G U38G | 0.03
G17A C18U U28A U32C G33U U34G C37A A39C | 0
G17U U32C G33C G40A | 0.04
G17C G22C C37G | 0.08
A16U C31U G36U G44A | 0
G17C G36A G44A | 0.03
G17C G35U C37G | 0.02
G17A G22U C31G | 0.04
G17A G22C A25U | 0.7
A16U C23U A39C G44C | 0
C18A C31U G33A G35C | 0.1
G17A G19U G27A C46A | 1.47
G17A G19A A26C G40A | 0.11
A16U G17U C31G | 0.05
G17A G30C A39U | 1.07

Variant | self-cleavage
G17C C31A A41G | 0.13
A16U G17U G33C U34G | 0.02
G17C C18A C23A G33C G36A | 0.03
G17C C23U G27U C46U | 2.6
G17C A26C U28G U32A | 0.15
A16U G21A G27U C45A | 0.3
G17U A24C G30C C42U G44A | 0.02
A16U C37A C45G | 0.04
G17A A41U C42A | 0.07
G17C A24U C31A G36A | 0.12
A16U G40A C42U G44C | 0.02
G17A A24U U34A G40U G44C | 0
G17A G21C U28C | 1.18
G17U C18G A41G | 0.02
G17C C18A G27C C42U | 0.01
C18A G19C G36C | 0.04
G17U G27A U34C C37A G44U | 0.03
G17U G40U C46A | 0.03
G17C A25U G33U | 0.21
G17U C18A A25C C37G | 0.02
G17A A24U U34A | 0.03
G17U A26C U38C A39C U43C | 0
G17C U28C A41C | 0.01
G17A U20C U28G | 0.04

Variant | self-cleavage
C18A C23U U28G | 0.02
G17C U28G C42G C46A | 0.03
G17A U20G G30U C37G | 0.01
C18A C23A U32G A39U | 0.03
G17C U20C C46A | 1.4
G17U G22C G27U G30A | 0.92
A16U G33A G44C | 0.05
A16U G19C A41G | 0.13
G17U G19C U38A | 0.34
A16U G35A A39C U43C | 0
G17U G40U A41G | 0.12
G17C C18A U32A | 0.05
C18A G19A G30C | 0.58
C18A G21C C23A A39U | 1.44
G17C A25G C31G | 0.35
G17A C23U A24G G29U | 0.04
G17A G22A G29A | 1.35
G17C G30A U32G | 0.06
A16U U28A C46A | 1.77
A16U A26C G29U G35U | 0.02
C18A A24G G29C | 1.26
C18A G19U G27U C31G C45A | 0.03
C18A C37G C42U | 0.02
G17A U20C A24U G35U G44U | 0.01

Variant | self-cleavage
G17U U34G G40U C42U | 0.03
G17C G21C A41U | 0.31
A16U C18U G22C | 0.03
G17C G33U U34G G40A C45A | 0
A16U A26G G29U G30A U38A A41U | 0.03
G17C C37G U43A | 0.24
G17A G30A C46U | 0.39
A16U C18U G44U C46A | 0.09
G17A U20G C31U A41U | 0.11
G17C C18U C46A | 0.1
G17C U20C A25U G30C | 0.22
G17C A39G C46A | 0.06
C18A A26G G27C A39G | 0.03
G17U G19C A24U C31G | 0.16
G17C A24U G40U | 0.01
G17U G19A A41C | 0.02
A16U G36U C42U | 0.12
G17A G22C G33A G36U | 0.01
G17U U20A G21C C46G | 0.35
C18A A25U U43C | 0.02
G17A A24G U32G G33A | 0.03
G17A G21U G40C A41U C42U U43C | 0.03
C18A G19U A24C U38G | 0.02
